Experimental findings from PubChem BioAssay AID360 (National Center for Advancing Translational Sciences (NCATS), 2006) are described below.

Among all 48,000 compounds or so, about 550 (1.1%) were called active. Inconclusive results (about 4%) are left out. Rule as the data show it: active = potency below about 15 µM; inconclusive = mostly about 16 µM to 33 µM; inactive = weaker than that. Some of the results follow. Where only a bound is given, the exact number is not on record here.
Potency is read from the fitted curve at half-maximal effect.

In this assay the target is Lysosomal acid glucosylceramidase (Homo sapiens) (UniProt P04062). Kind of assay: Glucocerebrosidase.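 Also: the screen sought inhibitors.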 To be noted: purified enzyme, resorufin glucoside fluorescence (screen aimed at inhibitors), 20 min. The procedure, abridged: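 Compounds titrated against 0.2 nM normal enzyme, 30 uM resorufin beta-D-glucopyranoside substrate, citrate/phosphate buffer with taurocholate and tween-20, pH 5.9. Reaction ran 20 min at room temperature; fluorescence (Ex 548/Em 600) gave AC50.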
Chain of UniProt P04062 (P04062 whole entry, looked up): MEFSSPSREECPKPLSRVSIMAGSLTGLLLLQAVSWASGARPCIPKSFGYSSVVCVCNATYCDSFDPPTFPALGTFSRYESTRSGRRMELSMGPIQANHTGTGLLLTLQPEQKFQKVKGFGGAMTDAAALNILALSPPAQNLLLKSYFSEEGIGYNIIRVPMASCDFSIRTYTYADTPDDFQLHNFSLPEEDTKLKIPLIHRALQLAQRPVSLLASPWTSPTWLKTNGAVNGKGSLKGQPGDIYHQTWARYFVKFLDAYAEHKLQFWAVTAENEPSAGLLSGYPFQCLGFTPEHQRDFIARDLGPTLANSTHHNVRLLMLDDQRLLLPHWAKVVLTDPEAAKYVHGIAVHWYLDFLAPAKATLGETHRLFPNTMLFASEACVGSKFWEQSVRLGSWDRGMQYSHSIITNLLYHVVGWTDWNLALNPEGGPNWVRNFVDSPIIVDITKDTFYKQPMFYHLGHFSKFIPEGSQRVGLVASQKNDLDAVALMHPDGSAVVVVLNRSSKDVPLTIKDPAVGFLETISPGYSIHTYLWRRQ
For the molecule `CCn1c(SCC(=O)OC2CCCCC2)nc2ccccc2c1=O`, the Potency is inactive: > 76.9 µM. Then `CCCN(Cc1cc2cccc(C)c2[nH]c1=O)C(=O)c1cccc(OC)c1`, with inactive: > 76.9 µM; and `CC(=O)C1=C(C)NC(SCC(=O)c2ccccc2)=C(C#N)C1CC(C)C` (centres undefined), with inactive: > 76.9 µM.

Regarding `CCOC(=O)c1c(C)n(CC(O)c2ccccc2)c2ccc(O)cc12` (centres undefined), the Potency was inactive: > 76.9 µM.

`Cc1ccccc1OCc1nnc(SCC(=O)Nc2ccc3c(c2)oc2ccccc23)n1C`: the Potency is inactive: > 76.9 µM. Then `COCCCNC(=O)Cn1cc(C(C)=O)c2ccccc21`, with inactive: > 76.9 µM; and `Cc1ccc(NC(=O)CCN2C(=O)c3ccncc3C2=O)cc1`, with inactive: > 76.9 µM. Then `c1ccc(-c2cc3c(nn2)CCc2nonc2-3)cc1`, with inactive: > 76.9 µM; and `CC(=O)c1c(C)nc(-c2ccc(Cl)cc2)nc1N=CN(C)C`, with inactive: > 76.9 µM. For `CCOC(=O)N1CCN(S(=O)(=O)c2ccc3c(c2)CCN3C(=O)C2CCC2)CC1` the value was inactive: > 76.9 µM; for `O=C(NCCC1=CCCCC1)C1CC(=O)N(C2CCCCCC2)C1` (centres undefined), inactive: > 76.9 µM. With `COc1ccc(S(=O)(=O)NC2(C(F)(F)F)N=C3SCCN3C2=O)cc1` (centres undefined), the Potency was inactive: > 76.9 µM. Regarding `CN(C)S(=O)(=O)N1CCN(C(=O)c2ccccc2Cl)CC1`, the Potency was inactive: > 76.9 µM. Then `CCOC(=O)CCC(=O)NCc1ccc2[nH]c(C)cc2c1`, with inactive: > 76.9 µM; and `O=C1CC(N2CCN(c3ccc(O)cc3)CC2)C(=O)N1Cc1cccs1` (centres undefined), with inactive: > 76.9 µM. For `Brc1ccc(-c2cn3cccnc3n2)cc1` the value was inactive: > 76.9 µM. Turning to `CN1c2ccccc2-c2nc3ccccc3n2C1c1ccncc1` (centres undefined), the Potency was inactive: > 76.9 µM. For `CC(=O)Nc1nonc1-c1nc2ccccc2n1CC1CC1` the value was inactive: > 76.9 µM; for `N#Cc1c(NC(=O)CSc2nc(N)cc(=O)[nH]2)sc2c1CCCCCC2`, inactive: > 76.9 µM; for `COC(=O)[C@H](CC(C)C)NC(=O)Nc1ccc2c(c1)OCCO2`, inactive: > 76.9 µM. For `CCOc1ccccc1NC(=O)CSc1nccn1-c1ccccc1` the value was inactive: > 76.9 µM. Then `Cc1sc2nc(SCC(=O)N3CCCCC3)[nH]c(=O)c2c1C`, with “inactive”; and `O=C(Nc1cccnc1)c1noc2c1CCCC2`, with inactive: > 76.9 µM. On to `Cc1ccc(OCc2nnc(SCC(=O)Nc3sc(C)c(C)c3C#N)n2C)cc1`, for which the Potency is inactive: > 76.9 µM.

Regarding `CC(=O)N1CCCc2cc(S(=O)(=O)N3CCN(c4ccccn4)CC3)ccc21`, the Potency was inactive: > 76.9 µM.

Take `COC(=O)Cc1[nH]nc2c1C(c1cccc(OC)c1OC)C(C#N)=C(N)O2` (centres undefined): the Potency was inactive: > 76.9 µM. Then `Cc1ccc(-c2ccc(=O)n(CCC(=O)NCCN3CCCCC3C)n2)cc1` (centres undefined), with inactive: > 76.9 µM. Then `CCn1c(Cc2ccccc2)nnc1SCC(=O)OC(C)C`, with inactive: > 76.9 µM; and `CN(C)S(=O)(=O)c1ccc(C(=O)OCC(=O)NC(=O)NCc2ccccc2)cc1`, with inactive: > 76.9 µM; and `COc1ccc(-c2nnc(SCC(=O)Nc3sc4c(c3C#N)CCC4)n2CC2CCCO2)cc1` (centres undefined), with inactive: > 76.9 µM.

Take `CCOc1ccccc1N(CC(=O)O)S(=O)(=O)c1ccc(C)cc1`: the Potency was inactive: > 76.9 µM. Then `Cc1cccc(NC(=O)CC2NC3CCCCC3NC2=O)c1` (centres undefined), with inactive: > 76.9 µM; and `Cc1cc(C(=O)OCC(=O)Nc2cc(C(F)(F)F)ccc2N2CCOCC2)c(C)o1`, with inactive: > 76.9 µM. For `CSc1ccccc1C(=O)NCc1ccc2c(c1)OCO2` the value was inactive: > 76.9 µM. For `Cc1cc(C)nc(NC(=O)C(C)N2C(=O)c3ccccc3C2=O)n1` (centres undefined) the value was inactive: > 76.9 µM; for `C=CCn1c(C)cc(C(=O)CSc2nc3ccccc3o2)c1C`, inactive: > 76.9 µM. Consider `Cc1cc(NCCN2CCOCC2)n2c(nc3ccccc32)c1C#N`, for which the Potency was inactive: > 76.9 µM. For `CN(c1ccccc1)S(=O)(=O)c1ccc(C(=O)OCC(=O)NCc2ccco2)cc1` the value was “inactive”; for `COc1ccc(CCNS(=O)(=O)c2ccc3c(c2)CCN3C(=O)C2CC2)cc1OC`, inactive: > 76.9 µM. Regarding `CCN(CC)CCC(=O)NC(C)(C)Cc1ccc(O)cc1`, the Potency was inactive: > 76.9 µM. For `Cc1ccc(-n2c(=O)[nH]cc(C(=O)Nc3ccc4c(c3)OCCO4)c2=O)cc1`, the Potency is inactive: > 76.9 µM. For the molecule `COC(=O)C1=C(N)Oc2cc(C)n(Cc3ccco3)c(=O)c2C1c1cccc(Cl)c1` (centres undefined), the Potency was inactive: > 76.9 µM. Then `CC1=[N+]([O-])C(N2CCOCC2)C(O)(c2ccccc2)C1` (centres undefined), with inactive: > 76.9 µM; and `CCCCCOC(=O)C1[C@H]2C(=O)N(Cc3cccs3)C[C@]23C=C[C@H]1O3` (some centres undefined), with inactive: > 76.9 µM.

As for `CCN1C(=O)C2(Nc3ccccc3-c3nc4ccccc4n32)c2cc(OC)ccc21` (centres undefined), the Potency was inactive: > 76.9 µM. For `c1ccc(-n2cnnc2SCc2cn3ccsc3n2)cc1` the value was inactive: > 76.9 µM; for `COc1ccc(N2CCN(Cc3cc(=O)oc4cc5c(cc34)CCCC5)CC2)cc1`, inactive: > 76.9 µM. For `Cc1cccc(N2CCN(C(=O)COc3cc(=O)n(C)c4ccccc34)CC2)c1C` the value was inactive: > 76.9 µM. For `COc1cccc(N2CC(C(=O)Nc3c(C)cccc3C)CC2=O)c1` (centres undefined) the value was inactive: > 76.9 µM. Take `COc1ccc(-c2csc3nc(C)n(-n4cccc4)c(=O)c23)cc1OC`: the Potency is inactive: > 76.9 µM. For `COc1cccc(/C(O)=C2/C(=O)C(=O)N(Cc3ccco3)C2c2ccncc2)c1` (centres undefined) the value was inactive: > 76.9 µM. For `COc1nc(N)nc(NC23CC4CC(CC(C4)C2)C3)n1` the value was “inactive”; for `CCOC(=O)c1ccccc1NC(=O)c1ccc(NS(C)(=O)=O)cc1`, inactive: > 76.9 µM; for `OCCNc1nc2ccccc2n1-c1ccccc1`, “inactive”. For `CCOCCCNc1nc2c(c(=O)[nH]c(=O)n2C)n1CCCc1ccccc1`, the Potency was inactive: > 76.9 µM.

Consider `O=S(=O)(c1ccccc1Cl)N1CCCC(c2nc(-c3cccnc3)no2)C1` (centres undefined), for which the Potency was inactive: > 76.9 µM. On to `CCCC(=O)Nc1cc(OC)c(OC)cc1C(=O)O`, for which the Potency was inactive: > 76.9 µM. For the molecule `Cc1nn(C(C)(C)C)c(OC(=O)c2cccs2)c1S(=O)(=O)c1ccccc1`, the Potency was inactive: > 76.9 µM. Consider `CN(C(=O)c1coc(=O)c2ccccc12)c1ccc(F)cc1`, for which the Potency was inactive: > 76.9 µM. Then `C=CCn1c(SCC(=O)c2ccc(CNC(C)=O)o2)nc2scc(C3CC3)c2c1=O`, with inactive: > 76.9 µM; and `O=C(Nc1nnc(-c2ccncc2)s1)C1CCCO1` (centres undefined), with inactive: > 76.9 µM; and `COc1ccc2oc(=O)c(C(=O)N3CCN(C45CC6CC(CC(C6)C4)C5)CC3)cc2c1`, with inactive: > 76.9 µM.

`CS(=O)(=O)N1CCC(C(=O)Nc2cccc(C(F)(F)F)c2)CC1`: the Potency entry was “inactive”. Then `CC(C)C(NC(=O)C1CCCCC1)C(=O)Nc1ccccn1` (centres undefined), with inactive: > 76.9 µM; and `CCOC(=O)COc1ccc(S(=O)(=O)Nc2ccc3c(c2)OCCO3)cc1`, with inactive: > 76.9 µM. Then `COc1ccc(OCCCC(=O)N2CCCc3ccccc32)cc1`, with inactive: > 76.9 µM; and `COc1ccc(C(C)=O)cc1COC(=O)c1c(C)noc1C`, with inactive: > 76.9 µM; and `Cc1cccc(OCCc2nnc(N)s2)c1C`, with inactive: > 76.9 µM. Regarding `Cc1nnc(SCC(=O)N2CCOCC2)s1`, the Potency is inactive: > 76.9 µM.

On to `Cc1ccccc1Nc1nc(N)nc(CSc2nc3ccccc3c(=O)n2CCCO)n1`, for which the Potency was inactive: > 76.9 µM. For `COc1cccc2cc(C(=O)n3ccc(C)n3)c(=O)oc12` the value was inactive: > 76.9 µM; for `O=C(c1ccccc1)N(Cc1ccc(F)cc1)C1CCS(=O)(=O)C1` (centres undefined), inactive: > 76.9 µM; for `COc1ccc(N2C(=O)CCC(C(=O)N3CCCCC3)C2c2ccc(OC)c(OC)c2)cc1` (centres undefined), inactive: > 76.9 µM. Then `CCCN1C2CCCC1CC(NC(=O)c1cc(OC)c(OC)c(OC)c1)C2` (centres undefined), with inactive: > 76.9 µM. For `CCOc1ccc(C(C)=O)cc1N1C(=O)C2C3C=CC(O3)C2C1=O` (centres undefined) the value was inactive: > 76.9 µM; for `CCOC(=O)C1CCCN(C(=O)C2CCCN(S(C)(=O)=O)C2)C1` (centres undefined), inactive: > 76.9 µM; for `O=C(CCn1c(=O)[nH]c2ccsc2c1=O)N1CCN(c2cccc(Cl)c2)CC1`, inactive: > 76.9 µM. Regarding `CCN(CC)P(=O)(C(NC(=O)OC)C(F)(F)C(F)(F)C(F)(F)C(F)F)N(CC)CC` (centres undefined), the Potency is inactive: > 76.9 µM.

In the case of `COc1ccc(-n2c(=O)cc(N3CCN(c4ccccc4OC)CC3)[nH]c2=O)cc1`, the Potency is inactive: > 76.9 µM. For `COc1cccc(NC(=O)C2C3C=CC4(O3)C2C(=O)N(C(C)C)C4C(=O)NC2CCCCC2C)c1` (centres undefined) the value was inactive: > 76.9 µM. For `CCOc1ccccc1OCCn1nnc2ccccc21` the value was inactive: > 76.9 µM; for `COC(=O)Cn1c2c(c3cc(C)ccc31)CCCC2`, inactive: > 76.9 µM; for `Cn1ccnc1SCC(=O)NC12CC3CC(CC(C3)C1)C2`, inactive: > 76.9 µM. For `CC(N=c1ccccn1C(=O)Nc1ccc(Cl)cc1)c1ccco1` (centres undefined), the Potency is inactive: > 76.9 µM. Regarding `CC(C(=O)NC1CCCC1)N(Cc1ccco1)C(=O)c1snc(C(=O)NC2CCCC2)c1N` (centres undefined), the Potency was inactive: > 76.9 µM. For the molecule `CC(=O)N1CCc2cc(S(=O)(=O)NC(C(=O)NC3CCCc4ccccc43)C(C)C)ccc21` (centres undefined), the Potency was inactive: > 76.9 µM. Then `CCOC(=O)c1sc2nc(CSc3nc4ccccc4n3CC)[nH]c(=O)c2c1C`, with inactive: > 76.9 µM; and `CC(=O)Nc1ccc2nc(-c3ccccn3)[nH]c2c1`, with inactive: > 76.9 µM.

Take `C=CCn1c(SCC(=O)NC(=O)NCc2ccco2)nc2sc(CC)cc2c1=O`: the Potency is inactive: > 76.9 µM.
